In PMC5836133:
The list shows a part of the results. At the low end of the ranking, values are background and their order means little.
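Further: rank-based score ranging −0.5 to +0.5 with E above 0.45 taken as significant binding.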

What follows are sequences tested on T1, GST-NbGlk1(82-244) (assay: protein-binding microarray). Conditions: NbGlk1 is a Golden2-like transcription factor of Nicotiana benthamiana; high values mean tight binding; most listed sequences are background and not binding sites; double strand, one strand shown.
T1 sequence: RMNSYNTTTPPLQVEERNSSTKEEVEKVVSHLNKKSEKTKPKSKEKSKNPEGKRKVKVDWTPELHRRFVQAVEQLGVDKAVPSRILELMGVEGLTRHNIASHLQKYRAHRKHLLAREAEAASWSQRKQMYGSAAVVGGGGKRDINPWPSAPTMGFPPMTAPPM
With ACCTTTCC the binding signal was -0.156 E-score.
For AAACGCAT, the binding signal was -0.0117 E-score.
In the case of AAACGGGG, the binding signal is reported as -0.0781 E-score.
Sequence AAACTGTT has a binding signal of -0.0414 E-score.
Sequence ACGCCGCC has a binding signal of -0.2 E-score.
Work on AGCATCGC yielded a binding signal of -0.0537 E-score.
Sequence AGGAGTTA has a binding signal of -0.0403 E-score.
ACGTCAGA showed a binding signal of -0.0329 E-score.
Work on ACGAGACA yielded a binding signal of -0.112 E-score.
Work on ATATTATA yielded a binding signal of 0.279 E-score.
With ATATAGCG the binding signal was 0.0922 E-score.
Work on ACTACTGG yielded a binding signal of 0.0332 E-score.
CACTGGAA was tested, and the binding signal was -0.136 E-score.
For ACTCAATG, the binding signal was 0.0234 E-score.
ACTCTATA gave a binding signal of 0.0537 E-score.
For CAATCAAA, the binding signal was 0.214 E-score.
Sequence ATAACCGC has a binding signal of 0.0432 E-score.
AACTCTAA gave a binding signal of 0.0558 E-score.
In the case of ATTGGCTG, the binding signal is reported as 0.1 E-score.
Work on CAAACGTA yielded a binding signal of -0.0229 E-score.
AGCCTCAT showed a binding signal of -0.157 E-score.
In the case of ACTCAAAG, the binding signal is reported as 0.00775 E-score.
Work on CACAACGG yielded a binding signal of -0.0812 E-score.
For ATAGTCCC, the binding signal was -0.203 E-score.
ATTTCTCG showed a binding signal of 0.285 E-score.
CAACGGTC showed a binding signal of -0.212 E-score.
AAAGTCTC showed a binding signal of -0.141 E-score.
Work on AAAAATGG yielded a binding signal of 0.025 E-score.
AGGGCCGG gave a binding signal of -0.296 E-score.
Sequence ACAATACA has a binding signal of 0.137 E-score.
For AATGTCAC, the binding signal was 0.0237 E-score.
In the case of CAAGGGGC, the binding signal is reported as -0.383 E-score.
Sequence AATGACCG has a binding signal of 0.00479 E-score.
For AAGTAGAT, the binding signal was 0.216 E-score.
ATGGCCAG gave a binding signal of -0.314 E-score.
ACGAACCC was tested, and the binding signal was -0.183 E-score.
Work on AACAACTT yielded a binding signal of 0.0226 E-score.
CAACTACG was tested, and the binding signal was 0.0364 E-score.
With ACTAAGCA the binding signal was 0.0408 E-score.
AACGCGTA showed a binding signal of -0.0303 E-score.
Sequence AAGTTGAA has a binding signal of -0.00901 E-score.
Work on AGGATGGG yielded a binding signal of -0.179 E-score.
AACGTATG gave a binding signal of -0.0497 E-score.
Work on ATGAAGTC yielded a binding signal of -0.179 E-score.
Sequence ACATAGGA has a binding signal of 0.0936 E-score.
AACCCGGC gave a binding signal of -0.178 E-score.
With ATGTTGCG the binding signal was 0.0547 E-score.
ATTTACAA was tested, and the binding signal was 0.245 E-score.
AGACGACT was tested, and the binding signal was -0.125 E-score.
With ACATGTGC the binding signal was -0.153 E-score.
For AAATGCGG, the binding signal was -0.0601 E-score.
Sequence ACAGGTAT has a binding signal of 0.186 E-score.
CACACTGG showed a binding signal of -0.23 E-score.
Work on AAGGCGCG yielded a binding signal of -0.0769 E-score.
ACTGGACT was tested, and the binding signal was -0.194 E-score.
For ATATTATC, the binding signal was 0.207 E-score.
In the case of AGGGCGGG, the binding signal is reported as -0.0186 E-score.
ATGATACC was tested, and the binding signal was 0.11 E-score.
In the case of ACTCTGAC, the binding signal is reported as -0.1 E-score.
Sequence AGCTAGAT has a binding signal of 0.216 E-score.
AAAATCGC showed a binding signal of 0.405 E-score.
Sequence AAAACCTG has a binding signal of -0.0801 E-score.
AGCGTTGC was tested, and the binding signal was -0.154 E-score.
ACTTTGGC gave a binding signal of -0.0566 E-score.
CAACGTAC showed a binding signal of -0.112 E-score.
In the case of ATTTCCAC, the binding signal is reported as 0.327 E-score.
Work on ACTTTTAA yielded a binding signal of 0.0525 E-score.
In the case of CAATATGA, the binding signal is reported as 0.165 E-score.
ATTTTCTC was tested, and the binding signal was 0.316 E-score.
For ACCCACCC, the binding signal was -0.0267 E-score.
ATATGCGG showed a binding signal of 0.114 E-score.
With ATCACAAG the binding signal was 0.134 E-score.
ATGTTCCG gave a binding signal of -0.0664 E-score.
With AGCTCCGG the binding signal was -0.251 E-score.
With AATGAGAA the binding signal was 0.144 E-score.
Work on ACCATGCA yielded a binding signal of -0.108 E-score.
Work on AGACCCGG yielded a binding signal of -0.246 E-score.
Sequence AGAGTAAT has a binding signal of 0.217 E-score.
ACCCTACA gave a binding signal of -0.0787 E-score.
Work on ACGGTTCC yielded a binding signal of -0.278 E-score.
For ACTTGAGA, the binding signal was -0.00419 E-score.
For ACGTCCCT, the binding signal was -0.135 E-score.
With AAATCCGT the binding signal was 0.401 E-score.
ATTGCGCG showed a binding signal of 0.378 E-score.
Work on ATTCAAGA yielded a binding signal of 0.0101 E-score.
AGAACCCT showed a binding signal of -0.266 E-score.
ATAGCACA was tested, and the binding signal was -0.0338 E-score.
In the case of CACTACCG, the binding signal is reported as -0.0977 E-score.
In the case of ATTTTGAC, the binding signal is reported as 0.177 E-score.
Work on CAGCCCCA yielded a binding signal of -0.214 E-score.
ATGGCTAG gave a binding signal of -0.0572 E-score.
Work on AGATGTCC yielded a binding signal of -0.0552 E-score.
ACCGGACT showed a binding signal of -0.219 E-score.
For CAAATTAA, the binding signal was -0.0733 E-score.
For ACTCCTCC, the binding signal was -0.192 E-score.
With ACTAGCCC the binding signal was -0.2 E-score.
For AACCTCAT, the binding signal was -0.145 E-score.
In the case of ACACGAGA, the binding signal is reported as 0.225 E-score.
ATGCGCTG gave a binding signal of -0.00802 E-score.
ACGGTTTG gave a binding signal of -0.167 E-score.
For ATGCCGAG, the binding signal was -0.105 E-score.
For ACCGTACG, the binding signal was -0.0886 E-score.
Sequence AACACTAG has a binding signal of -0.0921 E-score.
Work on ACATCCGG yielded a binding signal of 0.118 E-score.
With AGGGTAGG the binding signal was -0.188 E-score.
AGCATCTA gave a binding signal of 0.161 E-score.
AGAGCCGA was tested, and the binding signal was -0.174 E-score.
ACCCCGGC was tested, and the binding signal was -0.22 E-score.
Work on CACTCAAC yielded a binding signal of -0.029 E-score.
Sequence AGAGCTTA has a binding signal of -0.177 E-score.
Work on ACAGCGTA yielded a binding signal of -0.0646 E-score.
With ACAAAGCT the binding signal was -0.125 E-score.
With ATCTACAG the binding signal was 0.259 E-score.
In the case of AAAACGGA, the binding signal is reported as 0.0281 E-score.
CAAAGGCG gave a binding signal of -0.229 E-score.
Sequence ATTTACCG has a binding signal of 0.076 E-score.
For AAAAACAG, the binding signal was 0.00523 E-score.
With ACCCTTAA the binding signal was -0.158 E-score.
In the case of CAACTCGG, the binding signal is reported as -0.0632 E-score.
Sequence ACATGGAT has a binding signal of 0.276 E-score.
Work on AGACGAAG yielded a binding signal of -0.0932 E-score.
AGTGAGGG showed a binding signal of -0.113 E-score.
Sequence ATACTTGC has a binding signal of 0.177 E-score.
ACCCCCTC was tested, and the binding signal was -0.236 E-score.
AGCGGGCA gave a binding signal of -0.192 E-score.
Work on ACGGTCGC yielded a binding signal of -0.222 E-score.
Work on ATTCGTAG yielded a binding signal of 0.112 E-score.
AGACCAAA gave a binding signal of -0.0264 E-score.
ACGATTAC was tested, and the binding signal was 0.407 E-score.
With CAATGGGC the binding signal was -0.343 E-score.
In the case of ATACGCCA, the binding signal is reported as 0.0884 E-score.
CACGTCCA was tested, and the binding signal was -0.0315 E-score.
Sequence CAGCCGGC has a binding signal of -0.393 E-score.
Work on CACTGCGA yielded a binding signal of 0.0317 E-score.
Work on AACGCATT yielded a binding signal of -0.0271 E-score.
For ATCTCGAG, the binding signal was 0.292 E-score.
In the case of AGAGGGTC, the binding signal is reported as -0.356 E-score.
Work on AGATAAAC yielded a binding signal of -0.12 E-score.
Work on ACCGCTTG yielded a binding signal of -0.103 E-score.
Sequence AGGAGCGG has a binding signal of -0.181 E-score.
AGCTACTA showed a binding signal of -0.131 E-score.
With ACAAGCCC the binding signal was -0.223 E-score.
CAAACGAC was tested, and the binding signal was 0.0302 E-score.
AACCCAAG gave a binding signal of -0.0536 E-score.
For AAAGAATT, the binding signal was 0.139 E-score.
Sequence AACCGAGT has a binding signal of -0.169 E-score.
With AGAGGTTG the binding signal was -0.0687 E-score.
For AATAATTG, the binding signal was 0.0255 E-score.
For ACACACGG, the binding signal was -0.167 E-score.
With AAGTACAC the binding signal was -0.171 E-score.
AATCGGCC showed a binding signal of 0.152 E-score.
With CAAACCAC the binding signal was -0.0426 E-score.
AAGATAGT gave a binding signal of -0.00179 E-score.
Sequence ATCAGTAG has a binding signal of 0.0779 E-score.
AATACGAA was tested, and the binding signal was 0.205 E-score.
Work on ATACGACC yielded a binding signal of -0.00634 E-score.
AGCCGAGG gave a binding signal of -0.191 E-score.
With AGATTGCA the binding signal was 0.464 E-score.
AGGGAAGC was tested, and the binding signal was -0.108 E-score.
Sequence AAGGTAAA has a binding signal of 0.11 E-score.
For AGGAAAGC, the binding signal was -0.0988 E-score.
Sequence ACTTGGAT has a binding signal of 0.263 E-score.
CAACCATG gave a binding signal of -0.171 E-score.
AATTTAAT was tested, and the binding signal was 0.157 E-score.
Sequence CAAAGGGC has a binding signal of -0.278 E-score.
Work on ATAGGCGA yielded a binding signal of 0.0466 E-score.
Work on ACCAAGAG yielded a binding signal of -0.142 E-score.
Sequence ATCCAGTC has a binding signal of 0.089 E-score.
In the case of AAAGAAAT, the binding signal is reported as 0.26 E-score.
With ATTACTAA the binding signal was 0.141 E-score.
In the case of CAACTGTG, the binding signal is reported as -0.144 E-score.
With ACGCCTCA the binding signal was -0.109 E-score.
